Measurements taken from paper PMC6919601, “Identification of Plasmodium dipeptidyl aminopeptidase allosteric inhibitors by high throughput screening” (PLoS ONE, 2019).
Several values for one entry are separate records, joined by “and”; a condition that tells them apart may be missing. Identical values can stand only once. Screen size: about 110,000 compounds; about 230 (0.21%) showed an effect of 50% or more. Some of the results follow.

Molecular target: DPAP1 (Plasmodium falciparum, UniProt Q8IIJ9)
Sequence (Q8IIJ9 whole entry, looked up): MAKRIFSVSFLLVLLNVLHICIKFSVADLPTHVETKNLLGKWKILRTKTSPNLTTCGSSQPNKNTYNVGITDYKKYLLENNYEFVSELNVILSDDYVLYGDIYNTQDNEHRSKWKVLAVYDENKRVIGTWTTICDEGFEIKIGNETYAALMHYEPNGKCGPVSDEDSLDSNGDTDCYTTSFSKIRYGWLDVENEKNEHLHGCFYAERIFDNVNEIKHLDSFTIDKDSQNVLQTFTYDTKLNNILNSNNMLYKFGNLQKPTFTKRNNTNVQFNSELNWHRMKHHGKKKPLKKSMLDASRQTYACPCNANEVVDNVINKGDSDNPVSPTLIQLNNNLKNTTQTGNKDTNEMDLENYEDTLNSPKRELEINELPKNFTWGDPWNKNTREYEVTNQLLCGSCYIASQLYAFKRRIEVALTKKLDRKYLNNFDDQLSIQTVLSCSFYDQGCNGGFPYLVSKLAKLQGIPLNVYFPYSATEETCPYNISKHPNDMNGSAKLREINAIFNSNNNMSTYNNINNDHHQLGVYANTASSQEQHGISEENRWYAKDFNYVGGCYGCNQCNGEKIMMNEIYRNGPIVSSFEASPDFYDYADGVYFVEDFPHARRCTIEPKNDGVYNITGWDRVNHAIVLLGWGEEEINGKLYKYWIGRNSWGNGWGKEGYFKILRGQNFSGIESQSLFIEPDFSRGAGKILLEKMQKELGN
Assay: primary screen, percent inhibition; read by cleavage of a fluorogenic dipeptide substrate; higher = more effect of the substance
Set-up: species or system P. falciparum D10 trophozoite lysates; single well
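Note: 30 min substrate incubation versus DMSO and 10 µM JCP410 controls.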

| Structure (SMILES) | % Inhibition @ 10 uM |
| --- | --- |
| CCc1c(C)sc(NC(=O)Cc2ccc(OC)c(OC)c2)c1C(N)=O | 16.2% |
| COC(=O)C1=C(C)N(CCc2ccccc2)C(=O)C1(NC(=O)c1ccccc1)C(F)(F)F (stereo not shown) | -1.52% |
| Cc1c(C(=O)NCCN(C)Cc2ccccc2)sc2nc3n(c(=O)c12)CCCCC3 | -8.31% |
| CCOc1ccc(NC(=O)COc2cc(C)ccc2C(C)C)cc1 | -3.34% |
| CCOc1ccc(C(=O)Nc2ccc(C)cn2)cc1 | -0.95% |
| CCOc1ccccc1C1CC(=O)NC(SCc2ccccc2)=C1C#N (stereo not shown) | -1.64% |
| COC(=O)c1c(N)sc2c1CCC2 | 4.57% |
| N=C1S/C(=C\c2c[nH]nc2-c2ccc(F)cc2)C(=O)N1c1nonc1N | 5.12% |
| Cc1nc2c(=O)[nH]c(=O)n(C)c2nc1C | 3.54% |
| CCOC(=O)c1cc(-c2ccccc2)n(-c2ccccc2OC)n1 | -3.14% |
| COc1cccc(S(=O)(=O)Nc2noc3ccccc23)c1 | -6.5% |
| O=C(Nc1ccc2ccccc2c1)c1ccncc1 | -5.35% |
| CC(=O)N1CCC2(CC1)OC(=O)C(C)=C2C(=O)NCc1cccc(F)c1 | -1.04% |
| Cc1cccc2cc(-c3nc4ccccc4[nH]3)c(=O)oc12 | 2.31% |
| CCOC(=O)N1CCN(S(C)(=O)=O)CC1 | 2.92% |
| Cc1c(C)n(Cc2ccc(F)cc2)c2ccc(C(=O)NCCN(C)C)cc12 | -8.85% |
| O=C(NCc1ccc(F)cc1)C1c2ccccc2C(=O)N(C2CCCC2)C1c1cccs1 (stereo not shown) | 0.554% |
| Cc1ccc(C(=O)Cn2c3ccccc3n3nc(-c4ccccc4)nc23)cc1 | -7.38% |
| N#Cc1c(N)n(-c2ccccc2N)c2nc3ccccc3nc12 | 0.708% |
| O=C(NOC(=O)c1ccc(Br)cc1)c1ccc(Cl)cc1 | -9.79% |
| Cc1ccc(-c2nc(CS(=O)(=O)CC(=O)NCCN(CC(C)C)CC(C)C)c(C)o2)cc1 | -0.138% |
| CN(C)CCCN1CC(C(=O)O)CC1=O (stereo not shown) | -1.72% |
| CCOC(=O)c1sc(NC(=O)c2cc(=O)c3cc(C)cc(C)c3o2)c(C(=O)OCC)c1C | 5.06% |
| CC1(C)O[C@H]2[C@@H](O1)[C@@H](C(=O)NCC(=O)O)O[C@@H]1OC(C)(C)O[C@@H]12 | 1.64% |
| CCCOc1cccc(C(=O)N(Cc2ccc(Cl)cc2)C2CCS(=O)(=O)C2)c1 (stereo not shown) | -6.78% |

| Structure (SMILES) | % Inhibition @ 10 uM |
| --- | --- |
| CCN(CC)c1ccc(C2NC(=O)NC(C)=C2C(=O)Nc2ccccc2)cc1 (stereo not shown) | -0.949% |
| c1cc(C23CC4CC(CC(C4)C2)C3)ccc1OCCN1CCCCC1 | 3.58% |
| Cc1[nH]c2ccc3ncccc3c2c1C | 0.658% |
| CC1CCN(S(=O)(=O)c2ccc3c(ccn3CC(=O)NC3CCCc4ccccc43)c2)CC1 (stereo not shown) | 9.05% |
| COc1ccc2c(c1)C1CC(C)(NC(=O)C1S(=O)(=O)c1ccc(C)c(C)c1)O2 (stereo not shown) | -0.72% |
| CC(C)(C)OC(=O)NC1CCN(S(=O)(=O)c2ccc(OC(F)(F)F)cc2)CC1 | -3.24% |
| O=C(Cn1cnc2onc(-c3ccc(F)cc3)c2c1=O)N1CCN(Cc2ccc3c(c2)OCO3)CC1 | 5.2% |
| O=C1c2ccncc2C(=O)N1CCc1ccccc1 | 5.39% |
| CCC1CCCCN1C(=O)CSc1c2c(nc3ccccc13)CCC2 (stereo not shown) | -6.89% |
| CC(=O)Nc1cc(-c2ccccc2)sc1C(=O)O | -1.42% |
| O=C(NC1CCCc2ccccc21)C1CCCN(S(=O)(=O)c2ccc3nc(O)ccc3c2)C1 (stereo not shown) | 1.66% |
| O=C(CCCOc1ccc(Cl)cc1Cl)NCC1CCCO1 (stereo not shown) | 0.687% |
| O=C(Nc1ccc2ccccc2c1)c1cc(F)c(Cl)nc1Cl | 3.72% |
| Oc1ccccc1-c1nc(/C=C/c2cccs2)no1 | 0.032% |
| Cc1c(Cl)cccc1N(CC(=O)N1CCc2ccccc2C1)S(C)(=O)=O | 1.29% |
| COc1ccc(-c2noc(-c3ccc(Cl)c(Cl)c3)n2)cc1OC | -1.25% |
| COc1ccccc1C(=O)Nc1cc(-c2ccccc2)no1 | -3.24% |
| CCOc1cc(C2C3=C(O)CC(C)(C)CC3=Nc3ncnn32)ccc1O (stereo not shown) | -2.92% |
| COc1ccc2c(c1)cc1c(=O)n(CC(=O)NCCc3ccc(OC)c(OC)c3)nc(C)n12 | 0.0198% |
| CCCCOc1ccc(/C=C2\N=C(c3ccc(OC)cc3)OC2=O)cc1 | 2.11% |
| CC(=O)N1N=C(c2ccc(F)cc2)OC12CCCCC2 | -1.61% |
| COc1ccc(C(=O)ON=C2c3ccccc3-c3ccccc32)cc1OC | -5.62% |
| O=C(O)c1ccc(CNC(=O)C2CCN(S(=O)(=O)c3cccc4nsnc34)CC2)cc1 | 0.208% |
| COc1ccc(CN2CCN(c3ccccc3F)CC2)cc1Br | -3.56% |
| Nc1cc(N)nc(SCc2ccc(C(=O)Nc3ccccc3F)cc2)n1 | 3.58% |

| Structure (SMILES) | % Inhibition @ 10 uM |
| --- | --- |
| COc1ccccc1C(=O)Nc1ccc2c(C)cc(=O)oc2c1 | -5.11% |
| Cc1c(C)c2cc3c(C(C)(C)C)coc3c(C)c2oc1=O | -6.64% |
| CC(NC(=O)Cn1nc(-c2ccc(Cl)cc2)c2ccccc2c1=O)c1ccccc1 (stereo not shown) | -2.14% |
| CN(C)c1nc(OCC(F)(F)F)nc(N(c2ccccc2)c2ccccc2)n1 | -4.35% |
| CCOC(=O)c1c(-c2ccccc2)csc1NC(=O)c1nc(SC)ncc1Cl | -1.11% |
| CC1CCCC(NC(=O)C2CCC(C/N=c3/c(N4CCCC4)c(O)c3=O)CC2)C1C (stereo not shown) | 2.84% |
| O=C(Cn1nc(Cc2cccnc2)c2ccccc2c1=O)NCCCN1CCOCC1 | 2.04% |
| O=C(Nc1cccnc1)c1ccc(COc2ccccc2Br)cc1 | -0.891% |
| C/C(=N\NC(N)=S)C1(C)CC2(CC(C)(C)OC2=O)C(=O)O1 (stereo not shown) | -0.169% |
| c1ccc(-c2nnc3n2C2(CCCC2)Cc2ccccc2-3)cc1 | -6.82% |
| COC(=O)c1ccc(-c2ccco2)n1CC(=O)NCc1cccc(Cl)c1 | -3.22% |
| Cc1c(C(=O)N2CCOCC2)oc2ccc3c(c12)C(=O)CC(C)(c1ccc(Cl)cc1)O3 (stereo not shown) | -2.17% |
| CC(=O)c1ccc(NC(=O)CCC(=O)Nc2ccc(C(C)=O)cc2)cc1 | 1.62% |
| C#CCOc1c(Cl)cc(C2C(C#N)=C(N)OC3=C2C(=O)CCC3)cc1OC (stereo not shown) | 2.32% |
| Cc1c(-c2nsc(NC(=O)c3cccs3)n2)nnn1-c1ccc(F)cc1F | -4.33% |
| O=C1CCCN1CCCNc1nc2ccccc2c2nc(-c3cccnc3)nn12 | -4.21% |
| NC(=O)C1CCCN(Cc2c(Cl)cccc2Cl)C1 (stereo not shown) | 0.265% |
| O=C(c1ccc2c(Cl)c3c(nc2c1)CCC3)N1CCN(Cc2ccccc2)CC1 | -7.65% |
| N#CC1=C(N)Oc2cc(N)ccc2C1c1cccc(Br)c1 (stereo not shown) | -3.13% |
| Cc1ccc(OCC(=O)Nc2ccc(NC(=O)c3cccs3)cc2)c(C)c1 | -13.4% |
| CCCOc1ccccc1C1C2=C(O)CCCC2=NC2=C1C(=O)CCC2 (stereo not shown) | -0.25% |
| COc1ccc(OC)c(S(=O)(=O)N2CCN(C)CC2)c1 | 1.25% |
| O=C(CN1CCCCC1)NCCNS(=O)(=O)c1ccccc1 | -3.74% |
| CCOc1ccc(C(=O)Nc2ccc(N3CCN(S(C)(=O)=O)CC3)cc2)cc1 | -0.318% |
| O/C(=C\c1nc2ccccc2nc1O)c1ccc(F)cc1 | -2.24% |

| Structure (SMILES) | % Inhibition @ 10 uM |
| --- | --- |
| Cc1c(CCO)c2ccccc2n1Cc1ccccc1 | 0.00178% |
| Cc1nc2ccccc2n1CCc1nc2c3ccccc3nc(NCCN3C(C)CCCC3C)n2n1 (stereo not shown) | 0.981% |
| Cc1ccnc(NC(=O)CCC(=O)N2Cc3ccccc3Oc3ncccc32)c1 | 4.36% |
| CCOc1ccc(N2CC(C(=O)Nc3ccccc3C)CC2=O)cc1 (stereo not shown) | -4.68% |
| Cc1nc(NC(=O)COc2ccc(Cl)cc2Cl)sc1C(=O)N(C)C | 0.907% and -0.305% |
| COc1cccc2c1SCc1ccccc1C2CC(N)=O (stereo not shown) | -0.297% |
| CCOC(=O)c1cnc2c(OC)cccc2c1N | 4.61% |
| Cc1ccc(N2C(=O)C(Cl)=C(N3CCCCCC3)C2=O)c(C)c1 | -1.06% |
| Cc1cc(C)c2ccc[n+]([O-])c2c1O | 2.79% |
| Fc1ccc(/C=C/c2nc3ccccc3nc2N2CCOCC2)cc1 | -7.09% |
| O=C(NCCC1=CCCCC1)c1csc2c1CCCC2 | -5.05% |
| Cc1cccc(N2C(=O)NC(=O)/C(=C/Nc3cccc(C(=O)O)c3)C2=O)c1 | -3.03% |
| CCNS(=O)(=O)c1ccccc1[N+](=O)[O-] | -0.999% |
| O=C(CNCCCO)NC12CC3CC(CC(C3)C1)C2 | 7.2% |
| O=C(CCn1nc(-c2ccccc2)c2ccccc2c1=O)N1CCOCC1 | -4.84% |
| Cc1ccc(OCC(=O)Nc2ccc(Br)cc2)c(C)c1 | 0.52% |
| Cc1ccccc1C(=O)c1cccn1CC(=O)NCc1ccccc1Cl | 1.15% |
| OCCNc1nc(N2CCN(c3ccccc3)CC2)nc2ccccc12 | -2.76% |
| Cc1nn(C(=O)c2sc3ccccc3c2Cl)c(C)c1Cl | -3.21% |
| CCN(CC)CCN(C(=O)c1ccco1)c1nc2c(Cl)cccc2s1 | 2.75% |
| Cc1cc(C)c2oc(C(=O)N(Cc3ccc(C(C)C)cc3)C3CCS(=O)(=O)C3)cc(=O)c2c1 (stereo not shown) | 6.56% |
| O=C(NC1CCOCC1)N1CCN(c2ccccn2)CC1 | 0.635% |
| O=C(Nc1ccccc1[N+](=O)[O-])c1cccc(S(=O)(=O)Nc2ccccc2)c1 | 7.8% |
| O=C(O)c1c(-c2ccccc2)oc(-c2ccccc2)c1C(=O)O | 0.147% |
| O=C(Nc1cccc2ccccc12)C(=O)NC1CCCC1 | -1.75% |
